± gives the standard deviation of the averaged measurements. The list shows a part of the results.
These sequences were tested on PfAP2-LT AP2 domain (GST-tagged) (assay: gcPBM binding intensity (ln(normalized median fluorescence intensity)); higher = stronger DNA binding).
Outline: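 An Agilent 4 × 180k array carrying primer-extended double-stranded 36-bp intergenic genomic probes and negative controls received GST-tagged P. falciparum DNA-binding domains expressed in E. coli, about 25 μg on average, for 1 h. The binding buffer contained 1× PBS, 1% milk, 0.2 mg/ml BSA, 0.5% salmon testes DNA and 0.03% Triton X-100. Binding intensity is the top Masliner-normalised natural-log median intensity across replicate spots of either probe orientation, read after Alexa488 anti-GST antibody staining and a 488 nm scan.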

| Sequence | gcPBM binding intensity (ln) |
| --- | --- |
| ATATAAAATATTACGTGTACACATAAATAAAAATAA [XGTACX_site3746] | 9.06 ± 0.47 |
| ATATATATAAATAATTGTACATAATAATAAAATATA [XGTACX_site4839] | 8.8 ± 0.45 |
| ATATTTTGTAACTATACACACATATTTATATTATAA [CACACA_site7433] | 8.83 ± 0.44 |
| CAAGTAGATATTATACGTACATATATATATATATAT [XGTACX_site8349] | 9.65 ± 0.25 |
| TTTTATACATATTTTACACACTAAAATATACCTATA [CACACA_site6286] | 8.79 ± 0.49 |
| TAAAAAATATACATTCGTACATATATATTATATATA [XGTACX_site7918] | 8.61 ± 0.43 |
| GAAAAAAAAGCTTGCACACGTATTTGCTTTATGTAT [CACACA_site4931] | 9.22 ± 0.3 |
| TACATATATATATTATGTACATAAGGTTTGAGTTCA [XGTACX_site2726] | 8.79 ± 0.45 |
| TTTTTGGTATTATTGTGTACTTATAAATAATATAAT [XGTACX_site4019] | 8.62 ± 0.36 |
| AAAAAAAAATATACATATATATATATATATATATAT [CACACA_negctrl_site1763] | 9.78 ± 0.14 |
| ATATATATATATATTACACACTTTTTCTTTTTTTTT [CACACA_site2780] | 9.2 ± 0.32 |
| ATAATTCCAAGAATTTCATATATCTGAATTTTAGGT [GTGCAC_negctrl_site283] | 8.53 ± 0.4 |
| AATAAACATAAATAAAAATTATAAAATATATATATG [CACACA_negctrl_site1709] | 8.64 ± 0.51 |
| TTTACATTTCAGTAGACACACAAAAAATAATACTAA [CACACA_site512] | 8.76 ± 0.43 |
| TCATACATGTATATGTGTACATATAATGTATATTCC [XGTACX_site6082] | 8.84 ± 0.4 |
| TTATATTCTTTTCTCTTTCTACTTTTTTTTTTTTTT [XGTACX_negctrl_site317] | 8.45 ± 0.69 |
| AAGAAAAACTTATATATATATATATATATATATATA [TGCATGCA_negctrl_site466] | 9.79 ± 0.11 |
| TATAAATATTTATGTACACACATATACATGTTGAAT [CACACA_site5684] | 9.12 ± 0.47 |
| AAAAAAAAAAAAAAAAGTACAAAAAGAAGAAAAAAA [XGTACX_site6521] | 8.59 ± 0.53 |
| TTTTTTTTTTTTTTTTTTTTTTTATGTTCTTAAAAA [GTGCAC_negctrl_site62] | 8.2 ± 0.27 |
| TTTTTTTTTTTTACGTGTACATAAATGTTAAGTAAT [XGTACX_site3901] | 8.58 ± 0.47 |
| AAAATATAGGTATGCACACACATATACTTCTGTGCA [CACACA_site1409] | 9.47 ± 0.34 |

| Sequence | gcPBM binding intensity (ln) |
| --- | --- |
| TAAATACAGAGGAAAATACACACGTATATATATAAA [CACACA_site3410] | 9.21 ± 0.45 |
| AAAAAAAATTTAATTGCACACAGGAAAATATAATTT [CACACA_site3810] | 8.78 ± 0.38 |
| TTAATACCCAGACACACACACACAAAATAAAATACA [CACACA_site7968] | 10.1 ± 0.48 |
| TATAAATATACAAACACACATACAAACATATATATA [CACACA_site1120] | 9.24 ± 0.37 |
| CAATGTTAACATATTACACACATATGTATTTATAAC [CACACA_site7314] | 9.07 ± 0.33 |
| TAAATATATAATAAATGTACATATTAATATTATGGT [XGTACX_site1498] | 8.77 ± 0.48 |
| ATATGATCATTTTATCATTTTGCTTTTTCTTTTTTT [CACACA_negctrl_site1325] | 8.69 ± 0.48 |
| AATTTTGGAACGTGCACACATATGTAATATATATAT [CACACA_site3067] | 9.21 ± 0.32 |
| ATCGTGTTAAATGTTGTGCACATATAAATTACAAAA [GTGCAC_site9822] | 8.87 ± 0.48 |
| TTTTTTTAATGATATTGTACATTAATAAAAAATATG [XGTACX_site1719] | 8.12 ± 0.59 |
| ATTTGATATATAATAATACACACTTACATAATTAAT [CACACA_site290] | 8.87 ± 0.46 |
| TCTTTTTCAAGATGACGTACTTAGATTAATATAAAA [XGTACX_site3931] | 8.21 ± 0.33 |
| ATTTTATTTTCATATGAACACACATATATATATTAT [CACACA_site8741] | 9.4 ± 0.4 |
| CTGCGTTTAATATGCGTGCACCTTGGTTTTATATCT [GTGCAC_site9525] | 9.23 ± 0.36 |
| AACAACCAAAGGCACACACACAAAAAAAAAAATATA [CACACA_site399] | 9.71 ± 0.64 |
| TTTTAAATATGCCATACACACTACTATATAATAAAT [CACACA_site5119] | 8.69 ± 0.45 |
| AAAAAAAAAAAATATTGTAGAATATGATGACTTTGT [GTGCAC_negctrl_site554] | 8.52 ± 0.54 |
| ACATAAGATGAAAAATGTACATTCAAAAAATGAAAT [XGTACX_site3227] | 8.97 ± 0.42 |
| ACAAAACTGTCTTTCACACAGAAATAAAAAAAAAAA [CACACA_site5829] | 8.44 ± 0.55 |
| TGATAAGGATGTGAATTACTCAAAGGAAGTAATCAT [CACACA_negctrl_site1432] | 8.73 ± 0.49 |
| AAATTTCATGGGTATTGTACATAATTTTATTATATA [XGTACX_site4988] | 8.69 ± 0.36 |
| TATTTACACCCATGCGCACACATAAATAAATAATAG [CACACA_site5350] | 9.23 ± 0.42 |

| Sequence | gcPBM binding intensity (ln) |
| --- | --- |
| TATATATATGTATGTGGTACTTATATTATATACATA [XGTACX_site4550] | 8.71 ± 0.44 |
| ATACATATGGTGGATCGTACATATATATAATATGTA [XGTACX_site8631] | 8.94 ± 0.44 |
| ACAGAAAATAAAATTTGTACATATATAGAATAAAGA [XGTACX_site3014] | 8.79 ± 0.48 |
| CCATGTAGTGAATAGGTGCATATCAAAAAAAAAAAA | 8.69 ± 0.59 |
| AGAGAAAAAAAAAATTGTACGTATGTAATAATATGC [XGTACX_site2981] | 9.06 ± 0.52 |
| AGATATTATTTATATATTTATATATATATATAGATA [TGCATGCA_negctrl_site77] | 8.55 ± 0.39 |
| TAAATATCAAGACACACACACAAAAGTGAATAAATA [CACACA_site7723] | 9.53 ± 0.38 |
| TTCTTTTTAAATTACACACACATATATATATGTATA [CACACA_site3515] | 9.32 ± 0.41 |
| AAAGTAAAAGAAAGCACACACACATGGATTTATGTA [CACACA_site5997] | 9.5 ± 0.28 |
| TGTTGTATTGAAGCTAAAAAATGAGGCAAAAAAAAA [CACACA_negctrl_site1189] | 8.51 ± 0.51 |
| ATTTATGAGTAATACACACACTTGTGGATATATTAC [CACACA_site7735] | 9.07 ± 0.35 |
| ACTTCAAAAAAAAAAAAATATATATATATATATTAT [GTGCAC_negctrl_site158] | 8.54 ± 0.33 |
| TTTATATAATATAAATTTTTTTTGCAGTAATAAAAA [TGCATGCA_negctrl_site570] | 7.96 ± 0.39 |
| TTATACACAAAAAAAAAAATATATATATATATATAT [XGTACX_negctrl_site5] | 9.7 ± 0.15 |
| CTTTTAATGGTGTAAAGTACTTTCTTAAGGTTCAAA [XGTACX_site8423] | 8.43 ± 0.38 |
| TTTAATTATTAAATGGTGCACTTGAAATATAAAAAT | 8.54 ± 0.48 |
| TATACAACGTTAAGCACACACAAAAAAAATTTAATA [CACACA_site3086] | 9.12 ± 0.4 |
| AAGTTATATAAAGGAACACACATTTGATTTTATTTT [CACACA_site6814] | 8.76 ± 0.52 |
| ATATATGGGGCGCAGGAAAAGAGTTTTGGAAATAAA [CACACA_negctrl_site1265] | 8.98 ± 0.55 |
| ATTTAAATTATAAAATGTACATTTAACAAATTTTAT [XGTACX_site770] | 8.45 ± 0.47 |
| TGTAATCTGGAGAAAAGTACACAGTATCTGGTAGCT [XGTACX_site2039] | 8.87 ± 0.38 |
| TAACATTATATATATTGTACATAGTAAATATTATAT [XGTACX_site5421] | 8.73 ± 0.33 |

| Sequence | gcPBM binding intensity (ln) |
| --- | --- |
| ATTATTTATTATTTCTGTACGTATAAAAATAACATT [XGTACX_site1671] | 8.65 ± 0.38 |
| ATAAAACATAAAAATCGTACAAAGGAGGATATAAGG [XGTACX_site420] | 9.22 ± 0.42 |
| TGGAGGTCAGTTCACAGTACCCAGAAAACTCTACGA [XGTACX_site2561] | 8.57 ± 0.49 |
| AAAATGATGTTAATTACACACATCATCTCATAAACA [CACACA_site3017] | 8.91 ± 0.25 |
| AAGGGAATATACCTTACACACAAAAATGCAGATATA [CACACA_site1451] | 9.26 ± 0.45 |
| AAAGTAAAAAAAAAAACATGCACATATTTACTTTAT [TGCATGCA_site849] | 8.87 ± 0.47 |
| TTTTTTTTGGTTTTCATGCACACAATTTATAAATCT [CACACA_site3107] | 9.14 ± 0.38 |
| CTAATCAAAATAAATTAACACACAATTTTAATATTG [CACACA_site7887] | 8.58 ± 0.47 |
| ATATACTTACATATTACACACAATATTTTTAAATGT [CACACA_site3627] | 9.22 ± 0.37 |
| GTTAATATACTTAATACACACACGAATATATATAAA [CACACA_site1181] | 9.26 ± 0.29 |
| ATTCTATACATATATATACACACGTAGTTTCTATTT [CACACA_site2223] | 9.04 ± 0.43 |
| AAAAAAAAAAAGAAGGAAACATTTGACCAAAAATAT [GTGCAC_negctrl_site404] | 8.63 ± 0.55 |
| AATTATATATAAAGAAGTACTATTTCAAGGAGTTTT [XGTACX_site3837] | 8.54 ± 0.52 |
| AATAAAACATCATCATGTACAAAATTCGTCTTTGTA [XGTACX_site4821] | 8.81 ± 0.39 |
| CAAAATATATATGACACACACAAAAAAAGTATATTA [CACACA_site1589] | 9.25 ± 0.49 |
| TCAAATTTTCAACATTGTACATAAATGTATAAATAT [XGTACX_site6042] | 8.62 ± 0.33 |
| ATGTCACAATTTTTCACACACAAAATTTAAATACAT [CACACA_site5168] | 9.11 ± 0.4 |
| TATTATTATATATATAGTACATAAAATATAAAAAAA [XGTACX_site2060] | 8.6 ± 0.47 |
| TTTTTTTTTTAAATGTGTCCTCATTATAATATATGT [XGTACX_site5331] | 8.65 ± 0.47 |
| TTTTTTAAATTATATTATAGCAAATAAATATTAAAA [CACACA_negctrl_site1655] | 7.8 ± 0.49 |
| GCATTATTATATATTTGTACATATTTTTTTTTAAAA [XGTACX_site5436] | 8.67 ± 0.42 |
| TAATTATGCGGACACACACACACACCCAACTAAAAA [CACACA_site5427] | 9.9 ± 0.26 |
